Experimental findings from US20210292423A1 (published 2021) are described below.

One may read the Kd as the equilibrium constant for the complex coming apart.

Experiment [1] deals with T1, human CD3ε/δ-Fc fusion protein (soluble recombinant CD3ε/δ complex) (human, UniProt P04234 22-105).
T1 construct: also called huCD3ε/δ; huCD3; not shown: hinge, CH2, CH3 of human IgG with tag
Briefly: SPR Biacore. (In general: Surface plasmon resonance follows binding to a sensor surface in real time, without labels.)

Experiment [2] deals with T2, human CD123 Strep-II tagged Fc-fusion protein (human).
T2 construct: also called human CD123-Fc; recombinant CD123
Briefly: SPR Biacore.

Experiment [3] addresses T3, human CD123 (IL3RA) on cells (human, UniProt P26951 19-378).
T3 sequence: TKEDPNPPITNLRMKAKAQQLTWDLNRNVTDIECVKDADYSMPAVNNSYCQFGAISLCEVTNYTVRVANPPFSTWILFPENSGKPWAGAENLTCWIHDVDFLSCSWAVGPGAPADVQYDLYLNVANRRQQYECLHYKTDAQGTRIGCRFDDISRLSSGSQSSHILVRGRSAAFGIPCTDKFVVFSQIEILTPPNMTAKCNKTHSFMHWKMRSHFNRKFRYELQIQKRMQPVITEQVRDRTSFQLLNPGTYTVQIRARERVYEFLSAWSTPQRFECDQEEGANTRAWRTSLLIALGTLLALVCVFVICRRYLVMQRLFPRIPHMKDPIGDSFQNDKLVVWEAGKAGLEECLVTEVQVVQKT
Briefly: cell-based or functional assay.

B1: CODV-Fab hz20G6x7G3-TL4 antibody-like binding protein (bispecific antibody, human IgG4, kappa)
light: DFVMTQSPSSLTVTAGEKVTMSCKSSQSLLNSGNQKNYLTWYLQKPGQPPKLLIYWASTRESGVPDRFTGSGSGTDFTLTISSVQAEDLAVYYCQNDYSYPYTFGGGTKLEIKGQPKAAPDIVMTQTPLSLSVTPGQPASISCKSSQSLVHNNGNTYLSWYLQKPGQSPQSLIYKVSNRFSGVPDRFSGSGSGTDFTLKISRVEAEDVGVYYCGQGTQYPFTFGSGTKVEIKTKGPSRTVAAPSVFIFPPSDEQLKSGTASVVCLLNNFYPREAKVQWKVDNALQSGNSQESVTEQDSKDSTYSLSSTLTLSKADYEKHKVYACEVTHQGLSSPVTKSFNRGEC[human IgG4 Fc with S228P L235E H435R Y436F (EU numbers) omitted here]
heavy: QVQLVESGGGVVQPGRSLRLSCAASGFTFTKAWMHWVRQAPGKQLEWVAQIKDKSNSYATYYADSVKGRFTISRDDSKNTLYLQMNSLRAEDTAVYYCRGVYYALSPFDYWGQGTLVTVSSSEVQLQQSGPELVKPGASVKMSCKASGYTFTDYYMKWVKQSHGKSLEWIGDIIPSNGATFYNQKFKGKATLTVDRSSSTAYMHLNSLTSEDSAVYYCTRSHLLRASWFAYWGQGTLVTVSARTASTKGPSVFPLAPCSRSTSESTAALGCLVKDYFPEPVTVSWNSGALTSGVHTFPAVLQSSGLYSLSSVVTVPSSSLGTKTYTCNVDHKPSNTKVDKRV[human IgG4 Fc with changes omitted here]
notes: one chain of formula IV and one of formula III, IgG4 backbone; also called CODV-Fab-TL4 hz20G6x7G3; Fc-tagged variant TL4: hz20G6 × 7G3 CODV-Fab-TL4
For the molecule B1, the Kd in experiment [1] was 13.9 nM; in experiment [2], 1.7 nM. Further, in experiment [3], the “Cytotoxic assay (THP cells) EC50 [pM]” value was found to be 16.7 pM.
